Reference: PubChem BioAssay AID1458 (National Center for Advancing Translational Sciences (NCATS), 2008)
In all, about 210,000 compounds went through this assay and about 5,900 (2.8%) were called active. Inconclusive means that the source gave no clear call. Such entries were picked first, then a sample of the others. The call rests on the fitted dose curve; in most records, active means well fitted activation curve with a large enough effect; inconclusive means small, poorly fitted or top-dose-only effect; inactive means no such curve, though single readings can be large or run the other way. Potencies beside an inconclusive call are fits to weak or partial responses and may not hold up.

Test: qHTS Assay for Enhancers of SMN2 Splice Variant Expression; further: nearly all actives have a fitted effect of over 55% in size
Conditions: HEK293 SMN2-luciferase splicing reporter, luminescence, 30-36 h; series mostly up to 46.1 µM
Summary of the method: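 HEK293 cells carry an SMN2 […]–luciferase reporter in which exon 7 inclusion puts luciferase in frame. Cells were plated 10-12 h before compound addition, then incubated 30-36 h at 37C. ONE-Glo luminescence was read; sodium butyrate at 4.5 mM final served as control.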
Potency means the concentration at half of the fitted maximal effect; tags describe the fitted curve by direction and shape.

Compound | Potency
COc1ccc2[nH]c(-c3ccc(C)cc3)cc(=O)c2c1 | active: 1.26 µM
Cc1ccsc1C(=O)NCCC(c1ccccc1)c1ccccc1 | inactive
Cc1cc(C)n2nc(C(=O)Nc3ccc4c(c3)OCO4)nc2n1 | inconclusive: 10 µM [activator, partial curve]
COC(=O)C1CSC(C(=O)OC)N1C(=O)CN1CCN(c2ccccc2)CC1 (configuration not stated) | inactive
Cc1ccc(-n2c(=O)c3ccc(C(=O)NCc4ccco4)cc3n(Cc3ccc(Cl)cc3)c2=O)cc1 | inactive
COc1cc(CNCC(C)C)c(Br)cc1OCC(=O)NCc1ccccc1 | inconclusive: 0.0251 µM [activator, full curve, poor fit]
Cc1cccc(OCCOCCN2CCOCC2)c1C | inconclusive: 3.55 µM [activator, single point]
CCCCC(=O)Nc1nn(CCC)c2nc3ccccc3cc12 | inconclusive: 0.0035 µM [activator, full curve, poor fit]
Cc1nn(C(=O)c2ccco2)c(C)c1Sc1ccccc1 | inconclusive: 35.5 µM [activator, single point]
COc1cc(/C=N/Nc2ccccn2)ccc1OCC(C)C | inconclusive: 7.94 µM [activator, partial curve]
CC(C)c1nccn1CCC(=O)O | inconclusive: 35.5 µM [activator, single point]
CC(=O)Cc1nsc(Nc2ccc(Cl)cc2)n1 | inactive
Cn1c(=N)n(CC(=O)c2cccs2)c2ccccc21 | inconclusive: 22.4 µM [activator, single point]
S=c1[nH]nc(COc2ccccc2)n1/N=C/c1ccco1 | inactive
CCCCOc1ccccc1C(=O)Nc1onc2c1CCCC2 | inactive
CC12CCC(c3c(C(=O)O)nn(-c4ccc(F)cc4)c31)C2(C)C (configuration not stated) | inconclusive: 3.55 µM [activator, full curve]
CC(C)=CC(=O)OCc1cc([N+](=O)[O-])cc2c1OCOC2 | inconclusive: 35.5 µM [activator, single point]
COc1ccc(CC(=O)NNC(=O)c2cnccn2)cc1 | inconclusive: 0.0316 µM [activator, full curve, poor fit]
COc1cc(NC2=CC(=O)CC(C)(C)C2)cc(OC)c1OC | inconclusive: 1 µM [activator, partial curve]
Cc1ccc(/C=C/c2nnc(-c3cccc(C)c3)o2)cc1 | inactive
COc1ccc(C)cc1-n1nnnc1SCC(=O)c1ccc2c(c1)OCCO2 | inactive
CCOC(=O)C1C2C=CC3(CN(C4CCCC4)C(=O)C13)O2 (configuration not stated) | inconclusive: 3.55 µM [activator, full curve]
Cc1cc(C)c2c(-n3cccc3)c(C(=O)O)sc2n1 | inconclusive: 3.55 µM [activator, partial curve]
O=C(CN(Cc1ccco1)C(=O)CNS(=O)(=O)c1ccc(F)cc1)NCc1ccc(F)cc1 | inactive

Compound | Potency
Nc1nnc(CC(=O)N/N=C/c2ccc(-c3ccccc3)o2)s1 | inactive
CN(C)Cc1nc2ccccc2c(=O)n1CC#N | inconclusive: 31.6 µM [activator, single point]
Cc1cccc(NC(=O)c2cnc3ccccn3c2=O)c1 | active: 0.708 µM
CCCCn1c(SCC(N)=O)nnc1-c1cc(OC)c(OC)c(OC)c1 | inconclusive: 35.5 µM [activator, single point]
CN(C)S(=O)(=O)c1ccc(C(=O)NNc2nc(-c3ccccc3)c3cc(Br)ccc3n2)cc1 | inactive
N#Cc1ccccc1OCC(=O)NC(N)=O | inconclusive: 5.62 µM [activator, full curve, poor fit]
CCOC(=O)c1ccc(NC(=O)N2CCOCC2)cc1 | inconclusive: 22.4 µM [activator, single point]
COc1ccc(Cl)cc1NC(=O)Cn1c(=O)n(CCC(=O)NCc2ccc3c(c2)OCO3)c(=O)c2ccccc21 | inactive
COc1ccc(C(CNC(=O)/C=C/c2c(Cl)nc3ccccn23)N(C)C)cc1 (configuration not stated) | inactive
C=CCSc1nnc(-c2cc3c(s2)-c2ccccc2CC3)o1 | inconclusive: 10 µM [activator, partial curve]
COc1nc(Cl)cn(-c2ccc(C)cc2)c1=O | inactive
O=C(Nc1nc2c(s1)CN(Cc1ccccc1)CC2)C1CCC1 | inconclusive: 12.6 µM [activator, partial curve, poor fit]
Cc1ccc(-n2nc3cc(C)c(NC(=S)NC(=O)/C=C/c4ccco4)cc3n2)cc1 | inconclusive: 2.82 µM [activator, full curve, poor fit]
COc1ccccc1N=c1c2c([N+](=O)[O-])cc([N+](=O)[O-])cc2n(O)n1-c1ccccc1OC | inconclusive: 20 µM [activator, partial curve]
Cc1ccc(-c2nc3cccnc3s2)cc1NS(=O)(=O)c1ccc2c(c1)OCCO2 | inconclusive: 35.5 µM [activator, single point]
O=C(Cn1c(=O)n(CC2CCCO2)c(=O)c2ccccc21)N1CCN(c2ccccc2)CC1 (configuration not stated) | inactive
CC(=O)Oc1ccc(C)cc1-n1nc2ccccc2n1 | inconclusive: 17.8 µM [activator, single point]
Cc1c(NC(=O)C(C#N)=C2CCCCC2)c(=O)n(-c2ccccc2)n1C | inconclusive: 2.82 µM [activator, partial curve, poor fit]
CCN(Cc1ccccc1)Cc1c(O)ccc2c(=O)c(-c3ccccc3)c(C(F)(F)F)oc12 | inconclusive: 4.47 µM [activator, partial curve]
COc1ccc(C(=O)Nc2cc(C(C)C)c(O)c(S(=O)(=O)c3ccc(Cl)cc3)c2C)cc1 | active: 11.2 µM
CCC(CC)NC(=O)/C=C/c1ccccc1Cl | inconclusive: 17.8 µM [activator, single point]
O=C(COc1ccc(N2CC(C(=O)O)CC2=O)cc1)Nc1cccc(C(F)(F)F)c1 (configuration not stated) | inconclusive: 4.47 µM [activator, partial curve, poor fit]
CNC(=O)c1ccsc1NC(=O)c1ccc2c(c1)CCCC2 | active: 11.2 µM
